Results taken from the supplement of paper PMC12217912.
The other results are listed elsewhere or left out. The full chains were built here from the parent and the listed change. Values near 0.05 are background.

B1: TEV protease; numbered along this chain (parent)
chain: MGESLFKGPRDYNPISSSICHLTNESDGHTTSLYGIGFGPFIITNKHLFRRNNGTLVVQSLHGVFKVKDTTTLQQHLVDGRDMIIIRMPKDFPPFPQKLKFREPQREERICLVTTNFQTKSMSSMVSDTSCTFPSGDGIFWKHWIQTKDGQCGSPLVSTRDGFIVGIHSASNFTNTNNYFTSVPKNFMELLTNQEAQQWVSGWRLNADSVLWGGHKVFMVKPEEPFQPVKEATQL

Variants of: B1
Assay: raw area under fraction-flipped curve 0-4 h after induction (AUC4h, not background-subtracted), DNA-recorder readout of cleavage of the substrate (dimensionless); higher = more cleavage of the substrate by the protease variant
Conditions: temperature: 34 °C; time window: 0-4 h after rhamnose induction
Method: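 In vivo DNA recorder in E. coli TOP10(DE3) ΔrhaA at 34 °C. Each TEVp single-site mutant (parent TEVp 0) is paired with a single-site variant of the 7-mer TEVs (canonical ENLYFQ|S). The substrate sits between flexible linkers in a Bxb1-sfGFP-TEVs-SsrA fusion, so cleavage stabilises Bxb1 and speeds flipping of a recombination array, read by NGS. The value is the raw area under the fraction-flipped curve over 0-4 h after rhamnose induction (AUC4h), with ≥20 reads per time point. It is not background-subtracted; inactive controls average about 0.047.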
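Also: Bxb1 expression induced with 0.2% (w/v) L-rhamnose at OD600 near 0.5, cultures sampled hourly, flipped fraction per protease–substrate barcode pair counted by paired-end Illumina sequencing.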

| Variant | area with substrate ENLAFQS | area with substrate ENLDFQS | area with substrate ENLEFQS | area with substrate ENLFFQS | area with substrate ENLGFQS | area with substrate ENLHFQS | area with substrate ENLIFQS | area with substrate ENLLFQS | area with substrate ENLNFQS | area with substrate ENLPFQS | area with substrate ENLQFQS | area with substrate ENLRFQS | area with substrate ENLSFQS | area with substrate ENLWFQS | area with substrate ENLKFQS | area with substrate ENLCFQS | area with substrate ENLVFQS | area with substrate ENLTFQS |
| --- | --- | --- | --- | --- | --- | --- | --- | --- | --- | --- | --- | --- | --- | --- | --- | --- | --- | --- |
| MGESLFKGPRDYNPISSSICHLTNESDGHTTSLYGIGFGPFIITNKHLFRRNNGTLVVQSLHGVFKVKDTTTLQQHLVDGRDMIIIRMPKDFPPFPQKLKFREPQREERICLVTTNFQTKSMSSMVSDTSCTFPSGDGIFWCHWIQTKDGQCGSPLVSTRDGFIVGIHSASNFTNTNNYFTSVPKNFMELLTNQEAQQWVSGWRLNADSVLWGGHKVFMVKPEEPFQPVKEATQL [K142C] | 0.0577 | 0.0621 | 0.0709 | 0.074 | 0.0619 | 0.0693 | 0.0776 | 0.0579 | 0.0644 | 0.0586 | 0.0921 | 0.0979 | 0.0591 | 0.0947 |  |  |  |  |
| MGESLFKGPRDYNPISSSICHLTNESDGHTTSLYGIGFGPFIITNKHLFRRNNGTLVVQSLHGVFKVKDTTTLQQHLVDGRDMIIIRMPKDFPPFPQKLKFREPQREERICLVTTNFQTKSMSSMVSDTSCTFPSGDGIFWQHWIQTKDGQCGSPLVSTRDGFIVGIHSASNFTNTNNYFTSVPKNFMELLTNQEAQQWVSGWRLNADSVLWGGHKVFMVKPEEPFQPVKEATQL [K142Q] | 0.0623 | 0.074 | 0.0584 | 0.0795 |  |  | 0.0846 |  |  | 0.0631 | 0.0496 | 0.0693 | 0.0577 | 0.0742 | 0.066 |  |  |  |
| MGESLFKGPRDYNPISSSICHLTNESDGHTTSLYGIGFGPFIITNKHLFRRNNGTLVVQSLHGVFKVKDTTTLQQHLVDGRDMIIIRMPKDFPPFPQKLKFREPQREERICLVTTNFQTKSMSSMVSDTSCTFPSGDGIFYKHWIQTKDGQCGSPLVSTRDGFIVGIHSASNFTNTNNYFTSVPKNFMELLTNQEAQQWVSGWRLNADSVLWGGHKVFMVKPEEPFQPVKEATQL [W141Y] | 0.0718 | 0.0581 |  | 0.0739 |  | 0.0614 |  | 0.0724 | 0.0593 |  |  |  |  | 0.0204 | 0.0835 |  |  |  |
| MGESLFKGPRDYNPISSSICHLTNESDGHTTSLYGIGFGPFIITNKHLFRRNNGTLVVQSLHGVFKVKDTTTLQQHLVDGRDMIIIRMPKDFPPFPQKLKFREPQREERICLVTTNFQTKSMSSMVSDTSCTFPSGDGIFVKHWIQTKDGQCGSPLVSTRDGFIVGIHSASNFTNTNNYFTSVPKNFMELLTNQEAQQWVSGWRLNADSVLWGGHKVFMVKPEEPFQPVKEATQL [W141V] | 0.0625 | 0.057 | 0.0535 | 0.0666 |  |  |  | 0.0556 | 0.0645 | 0.0609 | 0.0603 | 0.0542 | 0.067 |  | 0.039 |  |  |  |
| MGESLFKGPRDYNPISSSICHLTNESDGHTTSLYGIGFGPFIITNKHLFRRNNGTLVVQSLHGVFKVKDTTTLQQHLVDGRDMIIIRMPKDFPPFPQKLKFREPQREERICLVTTNFQTKSMSSMVSDTSCTFPSGDGIFWKHWIQTDDGQCGSPLVSTRDGFIVGIHSASNFTNTNNYFTSVPKNFMELLTNQEAQQWVSGWRLNADSVLWGGHKVFMVKPEEPFQPVKEATQL [K148D] | 0.0586 | 0.0628 | 0.0676 |  |  | 0.066 | 0.0667 | 0.0653 | 0.056 | 0.0528 | 0.0691 | 0.0506 | 0.0659 | 0.0657 | 0.0587 | 0.0763 |  |  |
| MGESLFKGPRDYNPISSSICHLTNESDGHTTSLYGIGFGPFIITNKHLFRRNNGTLVVQSLHGVFKVKDTTTLQQHLVDGRDMIIIRMPKDFPPFPQKLKFREPQREERICLVTTNFQTKSMSSMVSDTSCTFPSGDGIFWKHWIQTYDGQCGSPLVSTRDGFIVGIHSASNFTNTNNYFTSVPKNFMELLTNQEAQQWVSGWRLNADSVLWGGHKVFMVKPEEPFQPVKEATQL [K148Y] | 0.0551 | 0.0695 | 0.0547 | 0.105 | 0.0629 | 0.0695 |  |  | 0.071 | 0.0664 |  |  | 0.073 | 0.108 |  | 0.0712 |  |  |
| MGESLFKGPRDYNPISSSICHLTNESDGHTTSLYGIGFGPFIITNKHLFRRNNGTLVVQSLHGVFKVKDTTTLQQHLVDGRDMIIIRMPKDFPPFPQKLKFREPQREERICLVTTNFQTKSMSSMVSDTSCTFPSGDGIFWKHWIQTKHGQCGSPLVSTRDGFIVGIHSASNFTNTNNYFTSVPKNFMELLTNQEAQQWVSGWRLNADSVLWGGHKVFMVKPEEPFQPVKEATQL [D149H] | 0.054 |  |  | 0.0559 |  |  | 0.0804 |  | 0.0576 | 0.0718 |  |  | 0.0598 |  | 0.0729 |  | 0.1 |  |
| MGESLFKGPRDYNPISSSICHLTNESDGHTTSLYGIGFGPFIITNKHLFRRNNGTLVVQSLHGVFKVKDTTTLQQHLVDGRDMIIIRMPKDFPPFPQKLKFREPQREERICLVTTNFQTKSMSSMVSDTSCTFPSGDGIDWKHWIQTKDGQCGSPLVSTRDGFIVGIHSASNFTNTNNYFTSVPKNFMELLTNQEAQQWVSGWRLNADSVLWGGHKVFMVKPEEPFQPVKEATQL [F140D] | 0.051 |  |  | 0.0572 | 0.0764 | 0.0621 |  | 0.0718 |  |  | 0.0509 |  | 0.0658 |  | 0.0579 | 0.0629 | 0.0417 |  |
| MGESLFKGPRDYNPISSSICHLTNESDGHTTSLYGIGFGPFIITNKHLFRRNNGTLVVQSLHGVFKVKDTTTLQQHLVDGRDMIIIRMPKDFPPFPQKLKFREPQREERICLVTTNFQTKSMSSMVSDTSCTFPSGDGIHWKHWIQTKDGQCGSPLVSTRDGFIVGIHSASNFTNTNNYFTSVPKNFMELLTNQEAQQWVSGWRLNADSVLWGGHKVFMVKPEEPFQPVKEATQL [F140H] | 0.0789 | 0.0708 | 0.0687 | 0.088 |  | 0.0586 | 0.0598 |  | 0.0558 |  | 0.0657 |  | 0.0875 | 0.0647 | 0.0683 |  |  |  |
| MGESLFKGPRDYNPISSSICHLTNESDGHTTSLYGIGFGPFIITNKHLFRRNNGTLVVQSLHGVFKVKDTTTLQQHLVDGRDMIIIRMPKDFPPFPQKLKFREPQREERICLVTTNFQTKSMSSMVSDTSCTFPSGDGIFWKTWIQTKDGQCGSPLVSTRDGFIVGIHSASNFTNTNNYFTSVPKNFMELLTNQEAQQWVSGWRLNADSVLWGGHKVFMVKPEEPFQPVKEATQL [H143T] | 0.0635 | 0.056 | 0.0633 | 0.0843 | 0.0704 |  | 0.0535 | 0.0608 | 0.0659 | 0.0587 |  |  | 0.0713 | 0.066 | 0.0684 |  | 0.0667 | 0.0597 |
